Some of the results follow. At the low end of the ranking, values are background and their order means little. Measured with an extract: partners may take part in the binding.

The target of the assay is T1, HNF4alpha8 (COS-7 nuclear extract) (UniProt P41235-5).
T1 sequence: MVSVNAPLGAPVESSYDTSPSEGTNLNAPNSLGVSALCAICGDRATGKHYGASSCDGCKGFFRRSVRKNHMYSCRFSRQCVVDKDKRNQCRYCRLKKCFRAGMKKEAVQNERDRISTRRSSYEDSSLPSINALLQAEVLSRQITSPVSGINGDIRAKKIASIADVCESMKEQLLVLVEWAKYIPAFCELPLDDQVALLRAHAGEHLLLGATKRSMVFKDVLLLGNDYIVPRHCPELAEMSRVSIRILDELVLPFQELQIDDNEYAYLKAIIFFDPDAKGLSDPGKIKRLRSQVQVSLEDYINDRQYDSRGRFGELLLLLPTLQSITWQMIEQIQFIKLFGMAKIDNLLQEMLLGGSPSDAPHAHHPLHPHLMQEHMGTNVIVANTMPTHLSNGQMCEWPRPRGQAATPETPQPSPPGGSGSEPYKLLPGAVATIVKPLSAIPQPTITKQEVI
Briefly: protein-binding microarray. As to conditions: COS-7 nuclear extract on double-stranded Agilent 4x180k PBM; binding buffer, salt, pH and temperature not given; high values mean tight binding; double strand, one strand shown; sequences stand for … in …GCCTAGGGAGATTAGAGTATCGGTCGA
As to TTAATAGAAGAAAGCCCTTTTTGGAATGTG, the binding signal (log2 normalized intensity) came to 0.929.

Turning to TGATCTTTACCCTGGAATGCTGTTAGCACT, the binding signal (log2 normalized intensity) was found to be 0.831.

CTTTGATCATATGCATTTCCCTAGATCACT: the binding signal (log2 normalized intensity) is -0.807.

Regarding AGGCCCCAACATTCCAGAGAAGCACATCCA, the binding signal (log2 normalized intensity) was -1.28.

On to ATCAAGGATTTTTTCTTGGACTTTGGTCAT, for which the binding signal (log2 normalized intensity) was found to be 8.58.

CTGGGGCCCCACTGGGGTGGAGATGCCGTC: the binding signal (log2 normalized intensity) is -0.939.

With TCAGAAGTCCAACATTAGTATCACTGTGAA, the binding signal (log2 normalized intensity) came to 1.16.

For GAGCAGCTGGTGGAGGCGGTGCCATTCACA, the binding signal (log2 normalized intensity) was -1.36.

Consider CTGCTGTTGCACCTCTTATCAAGCGTGCAC, for which the binding signal (log2 normalized intensity) was found to be 0.0901.

Regarding GGGCCGGGAAACGCCCTCGGCGCGCACCCA, the binding signal (log2 normalized intensity) was -1.37.

On to GCCTGTTTCCCTAGCTTATATCCCCTGCCT, for which the binding signal (log2 normalized intensity) amounted to 2.44.

ACCAGGGAAATTACCCTCTAATGGTATTCA: the binding signal (log2 normalized intensity) was -0.865.

Regarding AGGAATGCTATCTAGCATGACAAGAATACG, the binding signal (log2 normalized intensity) is -1.09.

As to AAGCTAAATACCCTCTTTAGGGTAGCCTGG, the binding signal (log2 normalized intensity) is -0.00996.

On to AGCCCTTATATCCACATGGGTCCAAAGTTC, for which the binding signal (log2 normalized intensity) is 9.47.

In the case of ATGGCACAGAGGAGGGACGACTTACTTTTA, the binding signal (log2 normalized intensity) is -1.31.

As for TCAACTGTTGTGGACCACGTGGCTAGATTG, the binding signal (log2 normalized intensity) amounted to 1.24.

As for GCCCGAGCTGTGCGGTAGGCATTGAGGCAG, the binding signal (log2 normalized intensity) is -1.36.

On to TCTCCGCTGGCCTGTCTCCTGGCCTATTGT, for which the binding signal (log2 normalized intensity) worked out at 1.17.

Turning to AGTGACGTGCAGAGGAGCAACTCATTCACT, the binding signal (log2 normalized intensity) is -1.16.

On to AGAGATGTCAGCCCAAGATAACCTCCCCTC, for which the binding signal (log2 normalized intensity) came to 4.29.

On to CACCCTTCTATCCCCTTATCTAAATGGAGT, for which the binding signal (log2 normalized intensity) amounted to 1.93.

With TAGAGTAACCATTCTTTCTGAGAAAAGCTG, the binding signal (log2 normalized intensity) is -1.23.

For the sequence TGAATAAACAAATAATGGCTTTTGCCCTCA, the binding signal (log2 normalized intensity) came to 4.15.

On to TTTCTGTTTGTCTTACTGTGTTGTCGTATT, for which the binding signal (log2 normalized intensity) worked out at 2.11.

TTTTTTTTTTTTTAACGGTCTGCCCTCTTG: the binding signal (log2 normalized intensity) worked out at 3.39.

As for AATGGAGTTTGGTTTAAAGTTCAAGTCATA, the binding signal (log2 normalized intensity) came out at 2.74.

In the case of CCATGCCACAGAATCGCCCCACCCTGCCTG, the binding signal (log2 normalized intensity) was 2.59.

As for CTTCTGAGATGGAGCATGATGAAATTTCCT, the binding signal (log2 normalized intensity) is -0.998.

For the sequence AACTTCTTGGCCTGCATAGCACTTTCATAA, the binding signal (log2 normalized intensity) is -0.863.

Turning to TGTTTGAATTGTGATAATAAATGTGTTTCA, the binding signal (log2 normalized intensity) was 1.78.

As to TACCTGCCTGAGCTATCTGTTTGAGGTTCA, the binding signal (log2 normalized intensity) turned out to be 1.73.

For the sequence GGCTAAAGATAACCTAGAAAGGAGAGATCA, the binding signal (log2 normalized intensity) was -1.36.

TTATCTTCCTCTGGCATCTGGTCAGGGGTC: the binding signal (log2 normalized intensity) worked out at 4.13.

Turning to TACCTTTCCTGCATTAACATCAACATGGAC, the binding signal (log2 normalized intensity) came to 2.03.

With TTCAATTATTTACTTTAGTTAGAGTCACTG, the binding signal (log2 normalized intensity) was -0.288.

With TTGGGCTGTGTTTTGCCCCTGCAGAGTTTT, the binding signal (log2 normalized intensity) is 2.45.

On to GCATTCCACATTCTCCACTGGGAAGTAGAA, for which the binding signal (log2 normalized intensity) was -1.05.

On to GCTTCCAAGGGGAATGTGGATGCTGGAATG, for which the binding signal (log2 normalized intensity) is -0.389.

In the case of AGAGGAAAGATGGGGATATAATCATTCATG, the binding signal (log2 normalized intensity) was -1.43.

Consider TAAAAATGCCTTTCATCTTTGAGAAAACTC, for which the binding signal (log2 normalized intensity) was -1.2.

Consider CAGGAGTCGGGAGGTAGGGGTGGCGGGTTG, for which the binding signal (log2 normalized intensity) worked out at 0.403.

On to AGTTCCAATAGCAAAACCTGATGTTTGGAC, for which the binding signal (log2 normalized intensity) worked out at 2.24.

Take AGAGGCCTTTGTGCTGACTAAGAGGAGAAG: the binding signal (log2 normalized intensity) was -1.42.

Take CTTGTCCTTGACCCTTCCTCCCATTTGCTG: the binding signal (log2 normalized intensity) turned out to be 2.59.

In the case of GACTGCGCTCCCAGAAGCCTCCGGTGTACC, the binding signal (log2 normalized intensity) is -0.536.

GTGAGTAGGTTAGATAGGAATCTGGATGGC: the binding signal (log2 normalized intensity) is -1.11.

For the sequence GAGAGTTGCACCCAGGCCGTTGGACCAAGC, the binding signal (log2 normalized intensity) is 0.782.

Turning to GCAGAAAGGGCATGGATTTAGATAAGAGGC, the binding signal (log2 normalized intensity) is -1.16.

For the sequence GTCCCTGGATTGTGTTGCACTGTTTGCATA, the binding signal (log2 normalized intensity) was determined as 1.14.

AAAAGATGGAACAAGCCAGGTGTGCAGAGA: the binding signal (log2 normalized intensity) is -1.29.

In the case of ACTCCCTGACGCCATCTGGCGTCCCCCACC, the binding signal (log2 normalized intensity) worked out at 4.39.

In the case of TAGCTTTCCCACCAAACCTGAAAAACCTCT, the binding signal (log2 normalized intensity) was -1.18.

As to TCTTTGCCCCATAACCACCATTAGACTCTG, the binding signal (log2 normalized intensity) was found to be 2.61.

CCTTAGGCGAATGTCAAAGGTCTTTGGTGG: the binding signal (log2 normalized intensity) was 2.95.

TGAGCTGCTTTGGGTGGATTTGGAGATCAG: the binding signal (log2 normalized intensity) is 0.669.

Consider GGCTCACAGAGAGGCTTCTGGCCAGGCAGA, for which the binding signal (log2 normalized intensity) was -1.29.

Take CAACACTTAGGGTGGATACTTTGACTGAGA: the binding signal (log2 normalized intensity) was -0.98.

Take GTTATCTCTGCTGATAGCATAAAGCTAGGA: the binding signal (log2 normalized intensity) is -1.31.

On to GATCAAAGGTTGGTTTTTGGAGACAGGAGT, for which the binding signal (log2 normalized intensity) is 3.24.

Regarding TAGCATGAACTACACAGATTCTGCAAACCT, the binding signal (log2 normalized intensity) was -1.22.

On to AGAGGAAGATATTATCTCTGTCTGTCAAGG, for which the binding signal (log2 normalized intensity) stood at 0.709.

As to ATAAAGGGTGAGTGCATGAATCAACTGTTG, the binding signal (log2 normalized intensity) was 0.0235.

Regarding CCCTGTCTCTCAGTCTCTGTGGGAGAGTAA, the binding signal (log2 normalized intensity) is 1.26.

In the case of CCCATTTTATGGGCTAACGCTGCTGTCTGT, the binding signal (log2 normalized intensity) turned out to be 0.508.

For the sequence TTGAAAGTTTGGTGGACTTTGGCCGTGAAG, the binding signal (log2 normalized intensity) came out at 7.64.

As to GCCCTGGTCTCTGCTACCTGTAGCTGAGGG, the binding signal (log2 normalized intensity) is -1.31.

As to TTGCAAAGCAACTCCTCTGTACAGCTCTTG, the binding signal (log2 normalized intensity) is -1.29.

With CCCAGAGCGGCAGCGCCTCCCGGTCACTAC, the binding signal (log2 normalized intensity) is -1.31.

Regarding TGAGCCCAATCTAGCAAAAATCCTGCCAAA, the binding signal (log2 normalized intensity) is -1.12.

As for CAACAGGTGTTAAAATAACGACCTTTGGGC, the binding signal (log2 normalized intensity) came to 6.57.

Turning to AGGTCACAGTAGGGAAAGTGGGGGGAAAGA, the binding signal (log2 normalized intensity) is -1.05.

The values above are taken from article PMC10726135.
